Measurements reported in paper PMC12136788.
Some of the results follow.

B1: chr17:45747064:45747065:+_ENSG00000108424_ENST00000290158|hu_hu|hu_hu_hu_mus_True|18_58 (ssRNA)
RNA: GGGAGUUCUACAGUCCGACGAUCGCCCACAGUCCACGCUGUUGUGUCUCGAACAACUACACUGGGGUCUUUCAUUAAUUCUAUUAGGGUGGGCAUAGCCUGUAUGACUAAUGGUUUGAGCUGACUGGGCUCUGGUCCUUCCAACAACAGAGGAUUGAGCAUCA
B2: chr4:25749455:25749456:-_ENSG00000091490_ENST00000264868|hu_hu|hu_hu_hu_mus_False|18_108 (ssRNA)
RNA: GGGAGUUCUACAGUCCGACGAUCGCAAGCACUAGGAUAGAAAAAUCCACAGGGGGAAAAAAUGUAAACCAAUGUACAAUGUUAUCGCCUUCCCUGUGUGUGGAGUGUUUGUCUCAAUAUUUCAAGGAGCUGCUGGAUUUGGGACAACAGAGGAUUGAGCAUCA
B3: 133644272_133644621_340_3pUTR_ENSMUSG00000032637_ENSMUST00000167759|mouse|control|control (ssRNA)
RNA: GGGAGUUCUACAGUCCGACGAUCGGACAAGCAGAACGUCGCUUGGUUUAAACACCAUGGUGUCCACAAUGUCUUCCCGGCGAGGCCCACCUGCUGGCUCAGAUGCUUUCCGAUGCACCGCGUCAACUGCCAGUUCAAACUUUGCAACAGAGGAUUGAGCAUCA
B4: 138266576_138268338_2400_CDS_ENSG00000044115_ENST00000302763|human|control|control (ssRNA)
RNA: GGGAGUUCUACAGUCCGACGAUCCAGCUGGUGGCAGUAGAGGGCGAUGCGUUGCAGGUAGGCCAGCAGGUCCUGCUUGCAAGCCGAGUCGGGGCAAUGGUCUGCAAUGGUGCGGCCAAGCUUGUCCAUCCUGGAUCCUGCCUCCAACAGAGGAUUGAGCAUCA
B5: chr2:78710632:78710633:+_ENSMUSG00000027011_ENSMUST00000028398|mus_hu|FALSE|FALSE (ssRNA)
RNA: GGGAGUUCUACAGUCCGACGAUCUCAGGCUCUGGAGCGGCUGGGUCUCGCUGGUCCGCAUCUGAACUGCCACUGCUGGUGCUGGGGCUCUCAUCAUCGGACCUUUGCCUAUCACUGGACAUCUUGGUGAAGUUAUCUCUUGGACAACAGAGGAUUGAGCAUCA
B6: chr4:48472932:48472933:-_ENSMUSG00000028345_ENSMUST00000030030|mus_hu|FALSE|FALSE (ssRNA)
RNA: GGGAGUUCUACAGUCCGACGAUCAGUUGACGCAUUUGCCAGGGAGACCAUGAUAUCAGACAGUGUUAAAUUCAGUAAGAGAUGAUCUAUGUUAUUGGAGAGAACUGUGCAAUGCUUGAUGCUUUUAUUUGGCUCUUUCCUUUUCAACAGAGGAUUGAGCAUCA
B7: chr10:82349929:82349930:+_ENSMUSG00000020250_ENSMUST00000020484|mus_mus|motif|central (ssRNA)
RNA: GGGAGUUCUACAGUCCGACGAUCAUAACAUUUGUUGUUAUCCCGGGAUGGGACUGUCCAUUCCAAUGGCCAAAAGAAACGGUGGUAAACUUCAAUAUUUUCUUCCCCAAAUUUCUCUACGGCUUUUUCUUCAGAGAGGCCACACAACAGAGGAUUGAGCAUCA
B8: chr10:33190432:33190433:-_ENSG00000150093_ENST00000302278|hu_mus|hu_hu_hu_mus_True|48_58 (ssRNA)
RNA: GGGAGUUCUACAGUCCGACGAUCUACAUUUUCCAAACCUGCAUGUGAAUAAAACCCUGGCCACAGAGCCCCAAAACUACCUAACUGUGACUAUGGAGCUGCUGCUGUGAGCUUGGUGUUGCAAAAUCCGCCUGAGUAGGAUUCCAACAGAGGAUUGAGCAUCA
B9: chr1:173273950:173273951:-_ENSMUSG00000013997_ENSMUST00000111295|mus_hu|FALSE|FALSE (ssRNA)
RNA: GGGAGUUCUACAGUCCGACGAUCAGGCCCCUGCCCUGGAAUCUCUACGUCACACAGAUGUGUCUUCCUGUAAGUGGCCACUACUGCCCCUUUGCUGUUCAGCAGCACGUGACAAUUGUAGAUUUUCUGAGUCUGCUCCCAGUCCAACAGAGGAUUGAGCAUCA
B10: 13607888_13609275_1788_3pUTR_ENSMUSG00000031918_ENSMUST00000134674|mouse|control|control (ssRNA)
RNA: GGGAGUUCUACAGUCCGACGAUCAGUGACACUGUCUUCUUAGGAAGAUUCUCUUUCCCCCUCUGCUGUUCGCUGUUACAAAGGAAUGUUCCAAAUAAACAGCUGUACAAGUGGUCCAGGAUGGUAAUGAGAAAAUACUCAUUGCAACAGAGGAUUGAGCAUCA
B11: chr12:96259795:96259796:+_ENSG00000139343_ENST00000266735|hu_hu|FALSE|FALSE (ssRNA)
RNA: GGGAGUUCUACAGUCCGACGAUCAAGGACAUUAUUACACCUUAUUAAAACUUCACCCAGAUGUCCAGACAAAGCUCCAUCUAUGUAUUCUUCUGUAUUUGCAAGCUGCAUGUUCAUGUAGCCAUCUACAGAUACCAGAUAGCCCAACAGAGGAUUGAGCAUCA
B12: chr7:148783431:148783432:+_ENSMUSG00000002957_ENSMUST00000003038|mus_hu|FALSE|FALSE (ssRNA)
RNA: GGGAGUUCUACAGUCCGACGAUCACUCAGCAGGUUCACAGCCUCCAUGUGUCCAAAGUCAAUGUCAUGACCAAGGAGAAAGAUGAAGAGCAACUUGCAGACGUACUUUUUUUUACUAUAGCCAUCAAGAGCCUUGUCACCUUUCAACAGAGGAUUGAGCAUCA
B13: chr7:141441981:141441982:+_ENSG00000106028_ENST00000265304|hu_mus|hu_hu_hu_mus_False|28_48 (ssRNA)
RNA: GGGAGUUCUACAGUCCGACGAUCCUCAUGUCUUACAAACUGACGAAAUACCUGUAACACAGGUCUUCGAAACAUGGCUUCUGUUUUCUUUUCUUACUAAUCUUUAGUUAGGCUUUUAAGGAAAGAAAGAAAAGAGAAAAAUGACAACAGAGGAUUGAGCAUCA
B14: 90986679_90991893_1066_CDS_ENSG00000140575_ENST00000268182|human|control|control (ssRNA)
RNA: GGGAGUUCUACAGUCCGACGAUCCCCCAGGGCUGGUGACUGCAGAGCCCUGAACAAGGCCAGUGCAUCUCCUUGUUCUAAAGCCAGGUCGAUAUUUGCUAAUGCAGAAAAUGUAUUGACUUUGUUUAUAUUGCCUUGAAUUUCCAACAGAGGAUUGAGCAUCA
B15: chr10:112361861:112361862:+_ENSG00000108055_ENST00000361804|hu_mus|motif|central (ssRNA)
RNA: GGGAGUUCUACAGUCCGACGAUCAAUAGCUUCAUAUUUUCUAAGUUCAAGUACAUUCAUCAAUUCCAUGAUUGAUUUGUAGCCUCGGUCCAAUUCCUCUUGCCGCUUUAUCAGCUUUUCCUUCUGCUCAGAGAAAUUCACAAACAACAGAGGAUUGAGCAUCA
B16: chr11:85008163:85008164:-_ENSMUSG00000018481_ENSMUST00000018625|mus_mus|FALSE|FALSE (ssRNA)
RNA: GGGAGUUCUACAGUCCGACGAUCAGCAUUUUCAUACUGAUUCAUGUCAUAAUUAUACAGAGAUGCCAGGUGUCCCACUGAAAGGGCCACUUCAUAAUCUUCUUGGCCAAGGAGCUGCUCCUUAAUCUGAAUUGCUUUUAUGUGCAACAGAGGAUUGAGCAUCA
B17: chr16:94690093:94690094:+_ENSMUSG00000040785_ENSMUST00000117648|mus_hu|mus_mus_mus_hu_True|58_108 (ssRNA)
RNA: GGGAGUUCUACAGUCCGACGAUCGGGGACUCCUGUGGGACACACAGCCUCGAUUCCAGGGGGAAAAAGUCUUAGUCAAUACUAAUUAAAAAGUGUUAAUGAUUUUUGAAAAUCAGAUUACAUCUAUAAAAGAUGAAAAGCAAACAACAGAGGAUUGAGCAUCA
B18: 120587509_120587830_4399_CDS_ENSG00000089154_ENST00000300648|human|control|control (ssRNA)
RNA: GGGAGUUCUACAGUCCGACGAUCACAGUCAUCUGCAGCCUCACGCACAUACUGGUUUCCAUCCCCAAAGCACAGGAGCAGAUGGGGCAGCACGUGAACCACAUACGGCUCAAAAAGUUUCCCCAGCAUGGUGCAGAGCAUCUCCAACAGAGGAUUGAGCAUCA
B19: chr16:75661828:75661829:-_ENSG00000065427_ENST00000302445|hu_hu|FALSE|FALSE (ssRNA)
RNA: GGGAGUUCUACAGUCCGACGAUCUAUUAUUUUCUAGACAGAAGUGCCAACUGUUGUGCUUUCCAGUGUAUCAGUGGUUGCUACAUUCUCCUUCUUGUCUUCGGGUUUCAUGGCAGGAAACAGAAGUACUUCCUUGAUGUUGUUCAACAGAGGAUUGAGCAUCA
B20: chr9:109937893:109937894:+_ENSMUSG00000032479_ENSMUST00000165876|mus_hu|FALSE|FALSE (ssRNA)
RNA: GGGAGUUCUACAGUCCGACGAUCCUCACUUAUUCCUUUUUGUGUUUGUGCAAUUUCCAUGUCUUUAAUUGGAACUGGUGUUGCCUCUGUUUCUGAGAGUGGUGGAACAUCUUUGGCUGGAGUCACAUUGUUGGCCAGGGUCAGCAACAGAGGAUUGAGCAUCA
B21: chr19:55172109:55172110:-_ENSMUSG00000024978_ENSMUST00000061856|mus_hu|FALSE|FALSE (ssRNA)
RNA: GGGAGUUCUACAGUCCGACGAUCGUGUGCUUACAUCGACCAACACUGUAUUCUGAUGAAUGUGGCAGAUAAGAAACAUCUAUUGUACCAAGGGUCAGUGCAGAUUCAUCCAUGUCACAAAGUGUAAUUCCCAAAUCAUGUGCUCAACAGAGGAUUGAGCAUCA
B22: chr11:100879890:100879891:+_ENSMUSG00000019302_ENSMUST00000044721|mus_hu|motif|central (ssRNA)
RNA: GGGAGUUCUACAGUCCGACGAUCUUGGAAAACAUUCACAUCUGGAUUUAAGUCACGAAACUGAACCUUUCCAAGUUCUCCGGAUUCACUGACACAACAAUAAGCAGCCUCUGACUGUAGAAAAAGCUGGGCCAGUGUCAUUUCCAACAGAGGAUUGAGCAUCA

Each binder was assayed against T1, UNK ZnF1-3 (human, UniProt Q9C0B0 31-174) (assay: nsRBNS (natural sequence RNA bind-n-seq); RBNS binding buffer (assumed for nsRBNS): 25 mM Tris pH 7.5, 150 mM KCl, 3 mM MgCl2, 0.01% Triton X-100, 500 ug/ml BSA, 20 U/ml SUPERase-In, 4 C; UNK is unkempt and MSI1 is Musashi-1; names of the RNAs are library labels; protein concentration not given here; high values mean tight binding).
T1 sequence: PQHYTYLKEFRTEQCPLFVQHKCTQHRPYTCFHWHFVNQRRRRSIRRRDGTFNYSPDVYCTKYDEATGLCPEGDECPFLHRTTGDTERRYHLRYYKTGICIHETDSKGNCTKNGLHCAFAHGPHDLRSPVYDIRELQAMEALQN

First: B1
Second: B2
The binding signal of the first is lower: 0.717 enrichment R for the first, 1.55 enrichment R for the second.

Compared with B3, B4 is lower in binding signal: 1.03 enrichment R for the first, 0.544 enrichment R for the second.

First: B5
Second: B6
The binding signal of the first is lower: 0.726 enrichment R for the first, 0.905 enrichment R for the second.

Compared with B7, B8 is higher in binding signal: 0.676 enrichment R for the first, 0.957 enrichment R for the second.

Going from B9 to B10, the binding signal rises from 0.647 enrichment R to 0.69 enrichment R.

Going from B11 to B12, the binding signal rises from 0.574 enrichment R to 0.996 enrichment R.

Going from B13 to B14, the binding signal rises from 0.606 enrichment R to 0.727 enrichment R.

Compared with B15, B16 is higher in binding signal: 0.574 enrichment R for the first, 1.85 enrichment R for the second.

Compared with B17, B18 is lower in binding signal: 1.47 enrichment R for the first, 1.38 enrichment R for the second.

Going from B19 to B20, the binding signal falls from 0.567 enrichment R to 0.505 enrichment R.

Compared with B21, B22 is lower in binding signal: 0.782 enrichment R for the first, 0.614 enrichment R for the second.
